Assay results taken from patent US20060211075.

Target: T1, peptide 23, Dap-substituted pyrene derivative at Y+3 (not fully specified)
T1 chain: EEEIYGEXEA

B1: Abl (protein)
chain: MLEICLKLVGCKSKKGLSSSSSCYLEEALQRPVASDFEPQGLSEAARWNSKENLLAGPSE[about 60 residues not written out]LEKHSWYHGPVSRNAAEYLLSSGINGSFLVRESESSPGQRSISLRYEGRVYHYRINTASDGKLYVSSESRFNTLAELVHHHSTVADGLITTLHYPAPKRNKPTVYGVSPNYDKWEMERTDITMKHKLGGGQYGEVYEGVWKKYSLTVAVKTLKEDTMEVEEFLKEAAVMKEIKHPNLVQLLGVCTREPPFYIITEFMTYGNLLDYLRECNRQEVNAVVLLYMATQISSAMEYLEKKNFIHRDLAARNCLVGENHLVKVADFGLSRLMTGDTYTAHAGAKFPIKWTAPESLAYNKFSIKSDVWAFGVLLWEIATYGMSPYPGIDLSQVYELLEKDYRMERPEGCPEKVYELMRACWQWNPSDRPSFAEIHQAFETMFQESSISDEVEKELGKQGVRGAVSTLLQAPELPTKTRTSRRAAEHRDTTDVPEMPHSKGQGESDPLDHEPAVSPLLPRKERGPPEGGLNEDERLLPKDKKTNLFSALIKKKKKTAPTPPKRSSSFREMDGQPERRGAGEEEGRDISNGALAFTPLDTADPAKSPKPSNGAGVPNGALRESGGSGFRSPHLWKKSSTLTSSRLATGEEEGGGSSSKRFLRSCSASCVPHGAKDTEWRSVTLPRDLQSTGRQFDSSTFGGHKSEKPALPRKRAGENRSDQVTRGTVTPPPRLVKKNEEAADEVFKDIMESSPGSSPPNLTPKPLRRQVTVAPASGLPHKEEAGKGSALGTPAAAEPVTPTSKAGSGAPGGTSKGPAEESRVRRHKHSSESPGRDKGKLSRLKPAPPPPPAASAGKAGGKPSQSPSQEAAGEAVLGAKTKATSLVDAVNSDAAKPSQPGEGLKKPVLPATPKPQSAKPSGTPISPAPVPSTLPSASSALAGDQPSSTAFIPLISTRVSLRKTRQPPERIASGAITKGVVLDSTEALCLAISRNSEQMASHSAVLEAGKNLYTFCVSYVDSIQQMRNKFAFREAINKLENNLRELQICPATAGSGPAATQDFSKLLSSVKEISDIVQR
Km: 90 µM | Vmax: 0.4 µmol/min/mg
